Reference: PubChem BioAssay AID652104 (National Center for Advancing Translational Sciences (NCATS), 2013)
Screen size: about 410,000 compounds; about 7,200 (1.8%) were called active. This list was built around the results that the source calls inconclusive (neither active nor inactive); the mix of calls is not that of the screen. Calls come from the whole dose curve; as a rule, active = well fitted activation curve with a large enough effect; inconclusive = small, poorly fitted or top-dose-only effect, or another doubt; inactive = no such curve, though single readings can be large or run the other way. No potency is given beside an inconclusive call; the fits are too rough.
Potency is the fitted concentration of half-maximal effect; tags give direction and shape of the fitted curve.

Test: qHTS of TDP-43 Inhibitors; note: nearly all actives have a fitted effect of over 50% in size; for growth rescue (activation): % of control where 0% means no effect
Settings: TDP-43 expressing yeast growth rescue, BacTiter-Glo, 24 h; growth rescue (activation): at 46.1 µM (top of the series) unless noted
How it was run: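 Growth rescue of TDP-43-toxic yeast measured as ATP luminescence (BacTiter-Glo). Cells grown to mid-log in raffinose, induced in galactose at OD600=0.02, exposed to compound 24 hr at 30 deg C.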
For `O=C(NCCc1cccs1)C1CC(c2ccc([N+](=O)[O-])cc2)=NO1` (stereo unspecified), the Potency was inconclusive [activator, single point].
For `O=C(NCc1cccc(Cl)c1)C1Cc2c(-c3ccc(Cl)cc3)ccnc2O1` (stereo unspecified), the Potency was inconclusive [activator, single point].
For `CN(Cc1ccccc1)/C(=N/O)c1cccc(Cl)c1`, the Potency was inconclusive [activator, single point].
With `CC(=O)c1cccc(NC(=O)c2ccc3nc(C(C)C)oc3c2)c1` the Potency was “inactive”.
With `COc1ccc(OC(C)C(=O)N(C)Cc2nc(-c3ccccc3)no2)cc1` (stereo unspecified) the Potency was inconclusive [activator, single point].
For `CCCCCCNC(=O)O[C@H]1C[C@H](C(=O)OC)[C@H](C(=O)OC)C2CN(S(=O)(=O)c3ccc(C)cc3)C[C@@]21O` (stereo partly specified), the Potency was inconclusive [activator, full curve].
In the case of `Cc1ccc([N+](=O)[O-])cc1S(=O)(=O)N1CCn2cccc2C1c1ccc(F)c(F)c1` (stereo unspecified), the Potency is reported as inconclusive [activator, partial curve].
In the case of `CN(C)c1ccc(C(=O)c2ccccc2)cc1`, the Potency is reported as active: 12.6 µM.
For `N#CC1C=Cc2c(ccc3ccccc23)N1C(=O)c1ccccc1` (stereo unspecified), the Potency was “inactive”.
In the case of `Cc1ccc(C)c(CN2C(=O)c3ccccc3Sc3ccc(C(=O)NCc4ccc5c(c4)OCO5)cc32)c1`, the Potency is reported as “inactive”.
In the case of `O=C(CN1C(=O)c2ccccc2S1(=O)=O)NC1CCCCCC1`, the Potency is reported as inconclusive [activator, full curve].
In the case of `CN(C)/C=N/c1nc(-c2ccc3ccccc3c2)cs1`, the Potency is reported as inconclusive [activator, single point].
For `CC(=O)c1ccc(Sc2nnnn2-c2ccccc2)c([N+](=O)[O-])c1`, the Potency was active: 20 µM.
With `COc1ccc(-c2nc3c(C)cc(Br)cn3c2Cc2cccc(F)c2)cc1OC` the Potency was active: 15.8 µM.
For `CCOC(=O)C1=CCN(S(=O)(=O)c2ccc(F)cc2)C1c1cccc(Cl)c1` (stereo unspecified), the Potency was inconclusive [activator, partial curve].
For `Cc1cccc(/C(N)=N/OC(=O)c2ccc(Br)o2)c1`, the Potency was active: 4.47 µM.
In the case of `COc1cc2ncc3c(-c4ccccc4)nn(-c4ccc(C)cc4)c3c2cc1OC`, the Potency is reported as active: 7.08 µM.
With `NC(=O)C1(N2CCCCC2)CCN(S(=O)(=O)c2cc(Cl)sc2Cl)CC1` the Potency was “inactive”.
With `FC(F)(F)c1nnc2c(Sc3ccccc3)nc3ccccc3n12` the Potency was “inactive”.
In the case of `Cc1cc(NS(=O)(=O)c2c(C)c(C)cc(C)c2C)no1`, the Potency is reported as inconclusive [activator, single point].
With `CCOc1ccc(S(=O)(=O)N2CCC(C(=O)N3CCOCC3)CC2)cc1C` the Potency was “inactive”.
In the case of `Cc1nn(Cc2c(Cl)cccc2Cl)c(Cl)c1/C=N/NC(=O)c1cccnc1`, the Potency is reported as inconclusive [activator, single point].
With `CC(Sc1ncnc2ccccc12)C(=O)Nc1ccc2c(c1)OCO2` (stereo unspecified) the Potency was inconclusive [activator, partial curve, poor fit].
For `NC(=S)NN=Cc1nccc2c(C(F)(F)C(F)(F)C(F)(F)F)cccc12`, the Potency was inconclusive [activator, partial curve].
For `COc1ccc(SC[C@H](Cc2ccccc2)N2CC[C@@H](C)CCC2=O)cc1`, the Potency was inconclusive [activator, single point].
With `FC(F)(F)c1cc(-c2cccs2)nc(-n2cc(Br)cn2)n1` the Potency was inconclusive [activator, partial curve].
In the case of `CN1CCc2c(sc3c2C(=O)NC(c2ccc(OC(=O)c4ccc(Cl)cc4)cc2)N3)C1` (stereo unspecified), the Potency is reported as inconclusive [activator, single point].
With `COc1ccc(CC(=O)NCCc2sc(-c3cccc(F)c3)nc2C)cc1` the Potency was active: 11.2 µM.
For `Cc1ccc(Cn2c(C)c(CNCc3ccc(OC(C)C)cc3)c(C(=O)O)c2C)cc1`, the Potency was “inactive”.
With `Cc1onc(-c2ccccc2)c1C(O)c1ccc(F)cc1` (stereo unspecified) the Potency was “inactive”.
In the case of `CN(CC(=O)Nc1cccc(S(=O)(=O)N2CCCC2)c1)Cc1ccccc1`, the Potency is reported as “inactive”.
With `Cc1cc(C)n(-c2ccc(NC(=O)C3CCN(Cc4cnc(C)s4)CC3)cc2)n1` the Potency was inconclusive [activator, single point].
With `Nc1ccc(C(=O)Nc2ccc3cc(S(=O)(=O)O)ccc3c2)cc1` the Potency was “inactive”.
In the case of `O=C(NCCc1ccccn1)C(F)(F)C(F)(F)C(F)(F)C(F)(F)C(F)(F)C(F)(F)C(F)(F)C(F)F`, the Potency is reported as inconclusive [activator, partial curve].
In the case of `CCCCOc1cccc(C2(C(=O)O)CCCC2)c1`, the Potency is reported as active: 20 µM.
With `COC(=O)c1ccc(Oc2ccc(S(=O)(=O)N3CCCCC3)cc2N)cc1` the Potency was inconclusive [activator, single point].
In the case of `O=C(O)c1ccc(N=Nc2c(O)ccc3ncccc23)cc1`, the Potency is reported as inconclusive [activator, partial curve].
In the case of `Cc1ccc(NC2=C(Cl)C(=O)OC2OC(=O)c2ccccc2C)cc1` (stereo unspecified), the Potency is reported as inconclusive [activator, single point].
With `COc1cccc(C(=O)N(Cc2nc(-c3ccc(C)cc3)no2)C(C)C)c1` the Potency was “inactive”.
In the case of `O=C(COc1ccc(Cl)cc1)NCCc1csc(-c2cccc(F)c2)n1`, the Potency is reported as inconclusive [activator, partial curve].
In the case of `CCN(C(=O)CN1C(=O)c2ccc([N+](=O)[O-])cc2C1=O)C1CCCCC1`, the Potency is reported as inconclusive [activator, partial curve].
For `CCC(=O)c1ccc(OC)c(OC)c1OCc1ccccc1`, the Potency was inconclusive [activator, partial curve].
In the case of `O=C(COCc1cc(-c2ccco2)on1)Nc1cccc(Cl)c1Cl`, the Potency is reported as inconclusive [activator, single point].
With `CCCOC1CCCN(C(=O)c2cc(COc3ccc(-n4cncn4)cc3)on2)C1` (stereo unspecified) the Potency was inconclusive [activator, partial curve].
With `CCCCN(CC)CCCNC(=O)c1cn(CC)c2ccc(S(=O)(=O)N3CCOCC3)cc2c1=O` the Potency was “inactive”.
With `COc1ccccc1NC(=O)c1cc(S(=O)(=O)NC2CCCC2)ccc1F` the Potency was inconclusive [activator, single point].
In the case of `COc1ccc(NC(=O)c2ccco2)cc1NC(=O)c1ccco1`, the Potency is reported as inconclusive [activator, partial curve].
For `COc1ccc(C2=Nn3c(nnc3-c3ccc(OC)cc3)SC2)cc1`, the Potency was inconclusive [activator, single point].
In the case of `Cc1nnc(C)n1/N=C/c1cc(Br)cc(Br)c1O`, the Potency is reported as “inactive”.
With `Cc1c(Cl)cccc1NS(=O)(=O)c1ccccc1` the Potency was “inactive”.
In the case of `CCc1cc2c(-c3ccccc3)cc(=O)oc2cc1OC(C)C(C)=O` (stereo unspecified), the Potency is reported as inconclusive [activator, single point].
In the case of `COC(=O)C1CCN(C(=O)/C(C)=C\c2ccccc2)CC1`, the Potency is reported as “inactive”.
In the case of `O=C(CSc1ccc(Cl)cc1)NCc1ccco1`, the Potency is reported as inconclusive [activator, partial curve].
With `CCc1cccc(NC(=O)CCN2C(=O)c3ccccc3Sc3ncccc32)c1` the Potency was “inactive”.
In the case of `Cc1cc(=O)n2nc(N(C)CC(=O)NCc3ccc(Cl)cc3)sc2n1`, the Potency is reported as “inactive”.
With `Cn1cc(C(=O)C(=O)N2CCCc3ccccc32)c2ccccc21` the Potency was inconclusive [activator, single point].
In the case of `O=C(COC(=O)Cc1ccc(Cl)cc1)NCc1ccc(F)cc1`, the Potency is reported as inconclusive [activator, partial curve].
With `COc1ccc(OC)c(CCNC(=O)c2cc3c(=O)n(C)c4ccccc4c3n2C)c1` the Potency was inconclusive [activator, single point].
With `COc1ccc(C(O)c2nc(/C=C/c3ccc(C(F)(F)F)cc3)cs2)cc1` (stereo unspecified) the growth rescue (activation) was inconclusive: 35.8% [activator].
For `Cc1ccccc1Nc1nc(N)nc(COC(=O)C2CCCCC2)n1`, the Potency was inconclusive [activator, partial curve].
In the case of `CC(=O)c1ccc(OC(=O)N2CCOCC2)cc1`, the Potency is reported as “inactive”.
With `CC1CCCCC1NC(=O)c1cc2ccccc2o1` (stereo unspecified) the Potency was inconclusive [activator, single point].
In the case of `COc1ccc(-c2cc(C(=O)N(C)Cc3ccc(F)cc3)c3ccccc3n2)cc1OC`, the Potency is reported as active: 22.4 µM.
In the case of `CC(C)Nc1nc(-c2ccccc2CO)c2sccc2n1`, the Potency is reported as inconclusive [activator, partial curve].
With `Cc1onc(-c2ccccc2Cl)c1C(=O)N1CCC(Cc2ccccc2)CC1` the Potency was inconclusive [activator, single point].
With `O=C(c1ccccc1)N1CCCC(c2ccc(Cl)cc2)=N1` the Potency was inconclusive [activator, single point].
In the case of `COc1ccc([C@H]2C[C@H](n3cc(COC(=O)c4ccccc4)nn3)[C@@H](O)CN2CC2CCCCC2)cc1`, the Potency is reported as inconclusive [activator, partial curve].
With `CCOC(=O)c1cc(CC)sc1/N=C/C1=C(O)CC(C)(C)CC1=O` the Potency was inconclusive [activator, partial curve].
With `CCCNC(=O)N1CCC(c2ccc3c(c2)OCO3)CC1` the Potency was inconclusive [activator, partial curve].
In the case of `Cc1cc(OCC(=O)N(C)C2CCCCC2)ccc1Cl`, the Potency is reported as inconclusive [activator, partial curve].
For `Cc1ccc(C(=O)Nc2cccc3ccccc23)o1`, the Potency was inconclusive [activator, partial curve].
